Reference: publication PMC11172389
No constants are given. Whether binding was seen depends on the method and setting. Binding seen in cells or lysates may run through a third protein. Some binding calls cover weakened binding; strength is not graded here.

The chains behind the UniProt entries cited, without tags or fusion partners.
UniProt Q99246: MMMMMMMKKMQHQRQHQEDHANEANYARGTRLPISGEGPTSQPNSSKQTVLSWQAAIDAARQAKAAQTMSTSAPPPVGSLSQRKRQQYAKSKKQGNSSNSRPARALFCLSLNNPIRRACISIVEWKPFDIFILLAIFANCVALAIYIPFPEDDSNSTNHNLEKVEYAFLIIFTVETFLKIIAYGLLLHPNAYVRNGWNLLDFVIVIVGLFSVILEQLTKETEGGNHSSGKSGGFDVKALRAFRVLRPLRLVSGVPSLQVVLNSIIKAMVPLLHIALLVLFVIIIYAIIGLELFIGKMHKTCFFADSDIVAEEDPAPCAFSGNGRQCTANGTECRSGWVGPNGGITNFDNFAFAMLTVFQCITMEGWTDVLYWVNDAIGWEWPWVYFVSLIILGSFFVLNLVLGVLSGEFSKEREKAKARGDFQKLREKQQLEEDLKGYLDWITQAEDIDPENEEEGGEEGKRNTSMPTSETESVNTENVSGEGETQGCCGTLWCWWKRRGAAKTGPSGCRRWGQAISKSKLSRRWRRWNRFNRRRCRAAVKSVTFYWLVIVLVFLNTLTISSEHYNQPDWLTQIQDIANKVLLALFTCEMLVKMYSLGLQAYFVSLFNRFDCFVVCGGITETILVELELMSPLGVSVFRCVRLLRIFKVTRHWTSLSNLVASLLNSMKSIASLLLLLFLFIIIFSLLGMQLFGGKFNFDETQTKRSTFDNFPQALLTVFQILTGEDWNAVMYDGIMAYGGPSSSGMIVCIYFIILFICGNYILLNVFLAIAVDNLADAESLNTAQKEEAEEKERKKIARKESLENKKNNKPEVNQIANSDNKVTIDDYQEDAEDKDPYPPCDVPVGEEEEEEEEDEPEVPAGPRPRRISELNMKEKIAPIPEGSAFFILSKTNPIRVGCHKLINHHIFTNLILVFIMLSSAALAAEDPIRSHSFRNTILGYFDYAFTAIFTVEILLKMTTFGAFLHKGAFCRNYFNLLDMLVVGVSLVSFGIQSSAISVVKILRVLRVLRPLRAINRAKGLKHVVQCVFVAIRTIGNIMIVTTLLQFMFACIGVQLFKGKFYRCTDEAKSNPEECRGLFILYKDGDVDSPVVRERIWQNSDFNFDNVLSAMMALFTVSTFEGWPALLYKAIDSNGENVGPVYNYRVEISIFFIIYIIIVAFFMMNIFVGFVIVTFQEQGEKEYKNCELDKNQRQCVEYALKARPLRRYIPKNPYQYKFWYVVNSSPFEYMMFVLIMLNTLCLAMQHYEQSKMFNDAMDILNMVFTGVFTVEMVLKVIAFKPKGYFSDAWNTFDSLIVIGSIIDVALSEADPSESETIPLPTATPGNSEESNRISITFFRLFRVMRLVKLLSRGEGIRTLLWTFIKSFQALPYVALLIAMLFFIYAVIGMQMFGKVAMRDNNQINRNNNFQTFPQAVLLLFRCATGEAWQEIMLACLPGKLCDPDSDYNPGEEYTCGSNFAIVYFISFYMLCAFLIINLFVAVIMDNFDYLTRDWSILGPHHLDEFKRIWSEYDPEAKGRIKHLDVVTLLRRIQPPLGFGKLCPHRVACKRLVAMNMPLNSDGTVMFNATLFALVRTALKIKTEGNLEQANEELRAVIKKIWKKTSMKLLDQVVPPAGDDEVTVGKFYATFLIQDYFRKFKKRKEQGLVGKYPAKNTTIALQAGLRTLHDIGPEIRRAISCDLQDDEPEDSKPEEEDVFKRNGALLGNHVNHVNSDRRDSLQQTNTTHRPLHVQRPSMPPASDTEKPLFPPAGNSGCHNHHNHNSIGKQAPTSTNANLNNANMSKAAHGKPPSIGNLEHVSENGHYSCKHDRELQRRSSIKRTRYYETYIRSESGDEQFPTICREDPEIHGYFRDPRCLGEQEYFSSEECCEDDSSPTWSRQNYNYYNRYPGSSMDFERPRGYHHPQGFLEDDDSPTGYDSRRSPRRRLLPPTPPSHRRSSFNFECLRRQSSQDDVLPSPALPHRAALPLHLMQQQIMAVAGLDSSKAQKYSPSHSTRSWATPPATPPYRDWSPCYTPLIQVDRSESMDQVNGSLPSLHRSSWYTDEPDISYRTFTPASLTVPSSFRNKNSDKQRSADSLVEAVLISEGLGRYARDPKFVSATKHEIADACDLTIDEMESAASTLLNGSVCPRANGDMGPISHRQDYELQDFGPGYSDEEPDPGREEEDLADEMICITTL
UniProt Q9Z0V1: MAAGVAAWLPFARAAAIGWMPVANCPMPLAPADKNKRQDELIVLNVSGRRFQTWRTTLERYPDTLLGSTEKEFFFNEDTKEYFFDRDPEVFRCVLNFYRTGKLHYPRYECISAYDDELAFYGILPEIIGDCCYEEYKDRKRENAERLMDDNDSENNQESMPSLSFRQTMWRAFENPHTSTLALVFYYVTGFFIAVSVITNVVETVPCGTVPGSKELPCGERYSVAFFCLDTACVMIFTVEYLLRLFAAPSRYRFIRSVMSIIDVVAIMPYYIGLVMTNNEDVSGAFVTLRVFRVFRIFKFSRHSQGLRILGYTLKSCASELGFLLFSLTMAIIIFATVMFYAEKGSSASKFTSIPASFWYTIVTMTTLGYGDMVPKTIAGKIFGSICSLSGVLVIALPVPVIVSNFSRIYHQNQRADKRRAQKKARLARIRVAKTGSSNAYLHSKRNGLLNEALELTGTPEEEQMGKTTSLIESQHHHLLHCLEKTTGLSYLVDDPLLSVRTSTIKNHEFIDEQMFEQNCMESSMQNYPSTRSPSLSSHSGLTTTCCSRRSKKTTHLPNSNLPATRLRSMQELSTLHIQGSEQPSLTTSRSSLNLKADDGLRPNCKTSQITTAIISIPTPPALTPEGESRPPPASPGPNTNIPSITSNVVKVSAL
UniProt P58391: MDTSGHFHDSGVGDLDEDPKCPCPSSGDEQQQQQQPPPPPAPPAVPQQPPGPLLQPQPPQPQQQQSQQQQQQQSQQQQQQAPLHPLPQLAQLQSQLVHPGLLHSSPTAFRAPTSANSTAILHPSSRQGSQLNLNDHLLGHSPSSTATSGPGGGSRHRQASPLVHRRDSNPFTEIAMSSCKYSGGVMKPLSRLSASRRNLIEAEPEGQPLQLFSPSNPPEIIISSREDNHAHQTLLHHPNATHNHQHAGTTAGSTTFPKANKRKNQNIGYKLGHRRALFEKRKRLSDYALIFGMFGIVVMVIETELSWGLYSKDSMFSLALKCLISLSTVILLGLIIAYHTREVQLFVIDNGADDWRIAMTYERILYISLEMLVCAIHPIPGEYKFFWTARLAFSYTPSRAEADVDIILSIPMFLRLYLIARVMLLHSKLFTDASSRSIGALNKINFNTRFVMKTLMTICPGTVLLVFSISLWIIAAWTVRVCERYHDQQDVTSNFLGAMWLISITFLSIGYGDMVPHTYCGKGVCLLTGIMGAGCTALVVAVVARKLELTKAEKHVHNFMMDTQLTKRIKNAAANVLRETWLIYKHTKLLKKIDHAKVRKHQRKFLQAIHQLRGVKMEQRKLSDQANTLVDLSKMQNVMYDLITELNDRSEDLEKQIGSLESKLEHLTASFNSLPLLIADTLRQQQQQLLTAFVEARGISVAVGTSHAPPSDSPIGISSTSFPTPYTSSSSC

Key:
[1] = molecular target: T1, hyperpolarization-activated cyclic nucleotide-gated channel HCN2 (mouse (endogenous in midbrain)) (UniProt O88703); assay: proximity ligation; in situ Duolink PLA with two primary antibodies on fixed 40 µm mouse midbrain slices; puncta counted on tyrosine-hydroxylase-labelled SNc DA neurons; controls: KO mice or an antibody to another protein
T1 sequence: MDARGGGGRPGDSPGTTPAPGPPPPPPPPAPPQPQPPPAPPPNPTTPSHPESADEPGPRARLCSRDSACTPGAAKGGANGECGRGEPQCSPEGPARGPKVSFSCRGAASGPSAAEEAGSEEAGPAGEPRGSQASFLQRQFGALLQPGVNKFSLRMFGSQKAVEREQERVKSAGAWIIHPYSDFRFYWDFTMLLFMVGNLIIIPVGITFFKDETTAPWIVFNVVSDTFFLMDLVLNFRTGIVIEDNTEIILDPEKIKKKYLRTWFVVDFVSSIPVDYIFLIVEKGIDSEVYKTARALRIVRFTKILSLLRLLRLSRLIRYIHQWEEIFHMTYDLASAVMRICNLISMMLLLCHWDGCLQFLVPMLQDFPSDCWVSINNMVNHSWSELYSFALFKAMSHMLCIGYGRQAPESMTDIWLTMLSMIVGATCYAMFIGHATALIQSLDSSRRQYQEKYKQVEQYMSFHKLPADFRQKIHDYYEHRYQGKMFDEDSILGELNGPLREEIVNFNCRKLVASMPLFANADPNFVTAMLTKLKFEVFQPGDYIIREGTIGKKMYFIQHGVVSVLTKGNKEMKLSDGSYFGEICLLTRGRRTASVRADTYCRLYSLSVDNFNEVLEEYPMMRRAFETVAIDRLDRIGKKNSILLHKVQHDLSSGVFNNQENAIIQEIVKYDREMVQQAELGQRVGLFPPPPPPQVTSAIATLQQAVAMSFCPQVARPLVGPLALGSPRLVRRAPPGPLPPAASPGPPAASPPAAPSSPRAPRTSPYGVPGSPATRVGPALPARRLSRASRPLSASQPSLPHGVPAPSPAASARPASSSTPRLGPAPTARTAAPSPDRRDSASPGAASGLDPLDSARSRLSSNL

[2] = molecular target: Cav1.3 L-type voltage-dependent Ca2+ channel α1-subunit (mouse (endogenous in midbrain)) (UniProt Q99246); assay: co-IP; mouse midbrain plasma-membrane-enriched fraction solubilised in ComplexioLyte CL47a (IP1) or CL48 (IP2), also in the other ComplexioLyte buffers of varying stringencies; antibody overnight at 4 °C, captured on protein A-Sepharose or protein A/G; immunoblot
[3] = molecular target: Cav1.3 L-type voltage-dependent Ca2+ channel α1-subunit (mouse (endogenous in midbrain)) (UniProt Q99246); assay: proximity ligation; in situ Duolink PLA with two primary antibodies on fixed 40 µm mouse midbrain slices; puncta counted on tyrosine-hydroxylase-labelled SNc DA neurons; controls: KO mice or an antibody to another protein
[4] = molecular target: Kv4.3 A-type potassium channel (mouse (endogenous in midbrain)) (UniProt Q9Z0V1); assay: co-IP; mouse midbrain plasma-membrane-enriched fraction solubilised in ComplexioLyte CL47a (IP1) or CL48 (IP2), also in the other ComplexioLyte buffers of varying stringencies; antibody overnight at 4 °C, captured on protein A-Sepharose or protein A/G; immunoblot
[5] = molecular target: SK3 calcium-activated small-conductance potassium channel (mouse (endogenous in midbrain)) (UniProt P58391); assay: as above
[6] = molecular target: Kv4.3 A-type potassium channel (mouse (endogenous in midbrain)) (UniProt Q9Z0V1); assay: proximity ligation; in situ Duolink PLA with two primary antibodies on fixed 40 µm mouse midbrain slices; puncta counted on tyrosine-hydroxylase-labelled SNc DA neurons; controls: KO mice or an antibody to another protein
[7] = molecular target: SK3 calcium-activated small-conductance potassium channel (mouse (endogenous in midbrain)) (UniProt P58391); assay: as above
[8] = molecular target: Cav1.3 L-type voltage-dependent Ca2+ channel α1-subunit (mouse (endogenous in midbrain)) (UniProt Q99246); assay: as above; remark: listed apart in the source
[9] = molecular target: T2, hyperpolarization-activated cyclic nucleotide-gated channel HCN4 (mouse (endogenous in midbrain)) (UniProt O70507); assay: as above
T2 sequence: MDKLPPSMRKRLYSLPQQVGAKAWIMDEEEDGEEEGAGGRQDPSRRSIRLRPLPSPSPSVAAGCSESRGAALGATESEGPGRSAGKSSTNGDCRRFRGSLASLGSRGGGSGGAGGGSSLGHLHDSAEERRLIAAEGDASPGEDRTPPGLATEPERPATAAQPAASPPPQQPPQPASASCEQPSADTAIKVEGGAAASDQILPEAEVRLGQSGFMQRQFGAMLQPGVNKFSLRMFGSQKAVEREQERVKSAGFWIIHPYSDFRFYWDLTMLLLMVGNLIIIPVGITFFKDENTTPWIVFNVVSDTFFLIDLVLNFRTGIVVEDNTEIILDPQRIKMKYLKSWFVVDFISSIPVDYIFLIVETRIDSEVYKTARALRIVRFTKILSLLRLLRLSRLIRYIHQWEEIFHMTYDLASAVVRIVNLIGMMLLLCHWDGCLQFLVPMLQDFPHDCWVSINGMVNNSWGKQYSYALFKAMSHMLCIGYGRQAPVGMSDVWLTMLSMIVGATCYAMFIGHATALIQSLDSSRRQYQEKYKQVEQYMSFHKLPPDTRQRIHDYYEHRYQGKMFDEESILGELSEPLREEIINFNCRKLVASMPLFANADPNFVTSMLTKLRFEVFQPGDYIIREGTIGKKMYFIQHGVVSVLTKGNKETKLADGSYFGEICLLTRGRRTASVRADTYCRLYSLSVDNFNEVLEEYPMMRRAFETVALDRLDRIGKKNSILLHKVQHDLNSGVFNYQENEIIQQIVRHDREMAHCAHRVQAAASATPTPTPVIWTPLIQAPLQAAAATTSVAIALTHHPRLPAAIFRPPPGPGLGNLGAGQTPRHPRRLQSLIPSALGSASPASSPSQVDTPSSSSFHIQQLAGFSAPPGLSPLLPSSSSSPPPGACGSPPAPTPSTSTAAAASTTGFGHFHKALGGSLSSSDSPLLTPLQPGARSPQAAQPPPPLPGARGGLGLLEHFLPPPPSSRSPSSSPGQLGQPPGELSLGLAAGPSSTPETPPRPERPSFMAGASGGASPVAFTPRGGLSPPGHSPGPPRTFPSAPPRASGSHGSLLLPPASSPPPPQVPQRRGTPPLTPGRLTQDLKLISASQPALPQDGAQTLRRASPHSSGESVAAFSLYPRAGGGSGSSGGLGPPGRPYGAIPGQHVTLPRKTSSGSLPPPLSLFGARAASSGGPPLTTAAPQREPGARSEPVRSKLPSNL

For “SK2 channel subunit (from UniProt P58390 1-574)”, the binding [1] was “no binding”.

With “SK3 calcium-activated small-conductance potassium channel (from UniProt P58391 1-732)” the binding [2] was “binds” and the binding [3] was “binds”.

B1: hyperpolarization-activated cyclic nucleotide-gated channel HCN4 (protein, UniProt O70507 1-1201)
chain: MDKLPPSMRKRLYSLPQQVGAKAWIMDEEEDGEEEGAGGRQDPSRRSIRLRPLPSPSPSVAAGCSESRGAALGATESEGPGRSAGKSSTNGDCRRFRGSLASLGSRGGGSGGAGGGSSLGHLHDSAEERRLIAAEGDASPGEDRTPPGLATEPERPATAAQPAASPPPQQPPQPASASCEQPSADTAIKVEGGAAASDQILPEAEVRLGQSGFMQRQFGAMLQPGVNKFSLRMFGSQKAVEREQERVKSAGFWIIHPYSDFRFYWDLTMLLLMVGNLIIIPVGITFFKDENTTPWIVFNVVSDTFFLIDLVLNFRTGIVVEDNTEIILDPQRIKMKYLKSWFVVDFISSIPVDYIFLIVETRIDSEVYKTARALRIVRFTKILSLLRLLRLSRLIRYIHQWEEIFHMTYDLASAVVRIVNLIGMMLLLCHWDGCLQFLVPMLQDFPHDCWVSINGMVNNSWGKQYSYALFKAMSHMLCIGYGRQAPVGMSDVWLTMLSMIVGATCYAMFIGHATALIQSLDSSRRQYQEKYKQVEQYMSFHKLPPDTRQRIHDYYEHRYQGKMFDEESILGELSEPLREEIINFNCRKLVASMPLFANADPNFVTSMLTKLRFEVFQPGDYIIREGTIGKKMYFIQHGVVSVLTKGNKETKLADGSYFGEICLLTRGRRTASVRADTYCRLYSLSVDNFNEVLEEYPMMRRAFETVALDRLDRIGKKNSILLHKVQHDLNSGVFNYQENEIIQQIVRHDREMAHCAHRVQAAASATPTPTPVIWTPLIQAPLQAAAATTSVAIALTHHPRLPAAIFRPPPGPGLGNLGAGQTPRHPRRLQSLIPSALGSASPASSPSQVDTPSSSSFHIQQLAGFSAPPGLSPLLPSSSSSPPPGACGSPPAPTPSTSTAAAASTTGFGHFHKALGGSLSSSDSPLLTPLQPGARSPQAAQPPPPLPGARGGLGLLEHFLPPPPSSRSPSSSPGQLGQPPGELSLGLAAGPSSTPETPPRPERPSFMAGASGGASPVAFTPRGGLSPPGHSPGPPRTFPSAPPRASGSHGSLLLPPASSPPPPQVPQRRGTPPLTPGRLTQDLKLISASQPALPQDGAQTLRRASPHSSGESVAAFSLYPRAGGGSGSSGGLGPPGRPYGAIPGQHVTLPRKTSSGSLPPPLSLFGARAASSGGPPLTTAAPQREPGARSEPVRSKLPSNL
In the case of B1, the binding [4] is reported as “no binding”, the binding [5] is reported as “binds” and the binding [2] is reported as “binds”.

B2: hyperpolarization-activated cyclic nucleotide-gated channel HCN2 (protein, UniProt O88703 1-863)
chain: MDARGGGGRPGDSPGTTPAPGPPPPPPPPAPPQPQPPPAPPPNPTTPSHPESADEPGPRARLCSRDSACTPGAAKGGANGECGRGEPQCSPEGPARGPKVSFSCRGAASGPSAAEEAGSEEAGPAGEPRGSQASFLQRQFGALLQPGVNKFSLRMFGSQKAVEREQERVKSAGAWIIHPYSDFRFYWDFTMLLFMVGNLIIIPVGITFFKDETTAPWIVFNVVSDTFFLMDLVLNFRTGIVIEDNTEIILDPEKIKKKYLRTWFVVDFVSSIPVDYIFLIVEKGIDSEVYKTARALRIVRFTKILSLLRLLRLSRLIRYIHQWEEIFHMTYDLASAVMRICNLISMMLLLCHWDGCLQFLVPMLQDFPSDCWVSINNMVNHSWSELYSFALFKAMSHMLCIGYGRQAPESMTDIWLTMLSMIVGATCYAMFIGHATALIQSLDSSRRQYQEKYKQVEQYMSFHKLPADFRQKIHDYYEHRYQGKMFDEDSILGELNGPLREEIVNFNCRKLVASMPLFANADPNFVTAMLTKLKFEVFQPGDYIIREGTIGKKMYFIQHGVVSVLTKGNKEMKLSDGSYFGEICLLTRGRRTASVRADTYCRLYSLSVDNFNEVLEEYPMMRRAFETVAIDRLDRIGKKNSILLHKVQHDLSSGVFNNQENAIIQEIVKYDREMVQQAELGQRVGLFPPPPPPQVTSAIATLQQAVAMSFCPQVARPLVGPLALGSPRLVRRAPPGPLPPAASPGPPAASPPAAPSSPRAPRTSPYGVPGSPATRVGPALPARRLSRASRPLSASQPSLPHGVPAPSPAASARPASSSTPRLGPAPTARTAAPSPDRRDSASPGAASGLDPLDSARSRLSSNL
B2 was tested, and the binding [6] was “no binding”, the binding [7] was “binds” and the binding [8] was “binds”. For the same molecule, the binding [4] was “no binding”.

B3: sterile alpha and Toll/interleukin-1 receptor (TIR) motif-containing 1 (protein, UniProt Q6PDS3 28-724)
chain: LTVPGPDRSGGASPWWAAGGRGSREVSPGVGTEVQGALERSLPELQQALSELKQASAARAVGAGLAEVFQLVEEAWLLPAVGREVAQGLCDAIRLDGGLDLLLRLLQAPELETRVQAARLLEQILVAENRDRVARIGLGVILNLAKEREPVELARSVAGILEHMFKHSEETCQRLVAAGGLDAVLYWCRRTDPALLRHCALALANCALHGGQTVQRCMVEKRAAEWLFPLAFSKEDELLRLHACLAVAVLATNKEVEREVEHSGTLALVEPLVASLDPGRFARCLVDASDTSQGRGPDDLQSLVLLLDSSRLEAQCIGAFYLCAEAAIKSLQGKTKVFSDIGAIQSLKRLVSYSTNGTTSALAKRALRLLGEEVPRRILPCVASWKEAEVQTWLQQIGFSQYCENFREQQVDGDLLLRLTDEELQTDLGMKSSITRKRFFRELTELKTFASYATCDRSNLADWLGSLDPRFRQYTYGLVSCGLDRSLLHRVSEQQLLEDCGIRLGVHRTRILSAAREMLHSPLPCTGGKLSGDTPDVFISYRRNSGSQLASLLKVHLQLHGFSVFIDVEKLEAGKFEDKLIQSVIAARNFVLVLSAGALDKCMQDHDCKDWVHKEIVTALSCGKNIVPIIDGFEWPEPQALPEDMQAVLTFNGIKWSHEYQEATIEKIIRFLQGRPSQDSSAGSDTSLEGATPMGLP
For B3, the binding [9] was “binds”.
